These results are taken from PMC3398040.

No constants are given. Whether binding was seen depends on the method and setting. In cells and extracts the contact can be indirect. Some entries that bind do so weakly or less than the wild type. Sequences can lack the tags named with a protein.

The target in experiment [1] is T1, GST-tagged full-length Ufo1 (^GSTFL-Ufo1) (yeast) (UniProt Q04511).
T1 sequence: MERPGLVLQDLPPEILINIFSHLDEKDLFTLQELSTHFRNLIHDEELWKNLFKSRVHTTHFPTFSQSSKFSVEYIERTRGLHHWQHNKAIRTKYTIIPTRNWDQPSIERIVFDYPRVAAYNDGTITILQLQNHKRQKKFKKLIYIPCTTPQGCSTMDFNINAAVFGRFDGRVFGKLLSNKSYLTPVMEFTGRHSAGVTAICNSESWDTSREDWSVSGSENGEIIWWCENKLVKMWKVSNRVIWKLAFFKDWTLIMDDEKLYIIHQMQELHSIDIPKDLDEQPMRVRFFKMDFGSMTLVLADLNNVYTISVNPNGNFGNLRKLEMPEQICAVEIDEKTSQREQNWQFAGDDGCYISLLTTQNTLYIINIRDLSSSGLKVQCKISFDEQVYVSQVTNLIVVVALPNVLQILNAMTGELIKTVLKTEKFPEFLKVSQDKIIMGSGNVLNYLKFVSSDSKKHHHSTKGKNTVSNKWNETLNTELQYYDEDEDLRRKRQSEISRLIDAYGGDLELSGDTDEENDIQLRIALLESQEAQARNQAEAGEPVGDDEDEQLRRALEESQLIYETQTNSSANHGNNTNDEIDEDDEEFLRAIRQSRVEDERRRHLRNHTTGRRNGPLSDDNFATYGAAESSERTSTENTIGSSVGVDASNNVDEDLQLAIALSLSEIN
As to the kind of experiment: pull-down; GST-Ufo1 or GST-Ufo1-WD40 on GSH beads incubated with yeast extract (wild type or ddi1Δ) with myc-Cdc53, a GFP-tagged 19S RP subunit and GFP-Ho present (Figures 2A, 2B, S2, S3); only the target purified.

Experiment [2] has as its target T2, GST-tagged Rpn10 (^GSTRpn10) (yeast) (UniProt P38886).
T2 sequence: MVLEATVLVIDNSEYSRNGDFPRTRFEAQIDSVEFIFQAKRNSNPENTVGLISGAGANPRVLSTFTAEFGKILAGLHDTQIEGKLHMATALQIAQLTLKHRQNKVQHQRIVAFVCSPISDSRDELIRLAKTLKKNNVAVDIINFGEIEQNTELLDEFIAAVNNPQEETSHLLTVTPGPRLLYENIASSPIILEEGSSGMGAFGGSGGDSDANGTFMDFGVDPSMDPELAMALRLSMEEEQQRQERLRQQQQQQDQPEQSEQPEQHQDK
As to the kind of experiment: pull-down; GST-Rpn1, GST-Rpn10 or GST on GSH beads incubated with yeast extract with myc-Cdc53 and GFP-Ho mixed with bacterial lysate with HIS-Ufo1 (Figure 3B); only the target purified.

Experiment [3] addresses T1, GST-tagged full-length Ufo1 (^GSTFL-Ufo1) (yeast). Nature of the experiment: co-IP; as a6 but yeast extract without GFP-Ho; immunoprecipitated with anti-myc, anti-GST or anti-HIS (Figure 4, - Ho).
Experiment [4] has the same target. As to the kind of experiment: co-IP; bacterial lysates with HIS-Rpn1 and GST-Ufo1 mixed with yeast extract with myc-Cdc53 and GFP-Ho; aliquots immunoprecipitated with anti-myc, anti-GFP, anti-GST or anti-HIS and Protein A beads (Figure 4, + Ho).
For experiment [5], the target named is T3, GFP-tagged Ho endonuclease (^GFPHo) (yeast) (UniProt P09932).
T3 sequence (chain, ubiquitylated as produced in yeast (sites not stated)): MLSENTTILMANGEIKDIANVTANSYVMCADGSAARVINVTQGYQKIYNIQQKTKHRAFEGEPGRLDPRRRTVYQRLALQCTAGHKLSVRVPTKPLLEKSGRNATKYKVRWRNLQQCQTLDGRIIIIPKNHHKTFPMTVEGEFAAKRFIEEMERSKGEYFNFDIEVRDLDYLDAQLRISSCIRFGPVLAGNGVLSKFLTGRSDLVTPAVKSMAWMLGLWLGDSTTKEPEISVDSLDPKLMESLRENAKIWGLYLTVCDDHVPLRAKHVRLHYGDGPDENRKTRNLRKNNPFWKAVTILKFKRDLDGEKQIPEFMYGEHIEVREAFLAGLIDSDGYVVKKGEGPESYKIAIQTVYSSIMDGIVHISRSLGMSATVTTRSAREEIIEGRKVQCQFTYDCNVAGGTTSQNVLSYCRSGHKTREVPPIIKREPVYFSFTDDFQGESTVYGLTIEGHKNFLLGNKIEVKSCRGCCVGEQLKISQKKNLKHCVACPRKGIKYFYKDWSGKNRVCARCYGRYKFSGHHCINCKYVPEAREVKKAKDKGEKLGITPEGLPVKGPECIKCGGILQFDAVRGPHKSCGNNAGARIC
The experiment is described as above.

Experiment [6] addresses T4, GST-tagged full-length Ddi1 (^GSTFL-Ddi1) (yeast) (UniProt P40087).
T4 sequence: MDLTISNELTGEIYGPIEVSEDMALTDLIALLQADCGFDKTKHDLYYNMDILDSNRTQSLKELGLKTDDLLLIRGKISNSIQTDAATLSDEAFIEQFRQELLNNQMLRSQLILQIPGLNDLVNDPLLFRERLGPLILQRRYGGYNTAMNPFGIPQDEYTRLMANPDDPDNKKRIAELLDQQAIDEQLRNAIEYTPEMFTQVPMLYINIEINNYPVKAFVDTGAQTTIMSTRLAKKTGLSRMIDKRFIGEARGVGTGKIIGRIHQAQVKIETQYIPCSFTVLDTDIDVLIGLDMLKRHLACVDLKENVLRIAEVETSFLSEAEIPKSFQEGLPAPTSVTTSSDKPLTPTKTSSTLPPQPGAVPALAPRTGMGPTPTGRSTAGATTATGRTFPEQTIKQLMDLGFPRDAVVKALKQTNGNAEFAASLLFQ
As to the kind of experiment: pull-down; recombinant GST fusion on GSH beads incubated with yeast extract, 4°C, 1-2 h, extract buffer (50 mM Tris-Cl pH 7.5, 150 mM NaCl, 5 mM EDTA, 0.1% NP40); washed with 2.5% Triton X100; Western blot (Figures 1A, 1B, 3A, 5E and 5F, extract alone); only the target purified.

Experiment [7] addresses T1, GST-tagged full-length Ufo1 (^GSTFL-Ufo1) (yeast). Nature of the experiment: pull-down; as a3 but yeast extract (wild type or ddi1Δ) without GFP-Ho (Figures 2A, 2B); only the target purified.
Experiment [8] deals with T5, myc-tagged Cdc53 (^mycCdc53) (S. cerevisiae) (UniProt Q12018).
T5 sequence: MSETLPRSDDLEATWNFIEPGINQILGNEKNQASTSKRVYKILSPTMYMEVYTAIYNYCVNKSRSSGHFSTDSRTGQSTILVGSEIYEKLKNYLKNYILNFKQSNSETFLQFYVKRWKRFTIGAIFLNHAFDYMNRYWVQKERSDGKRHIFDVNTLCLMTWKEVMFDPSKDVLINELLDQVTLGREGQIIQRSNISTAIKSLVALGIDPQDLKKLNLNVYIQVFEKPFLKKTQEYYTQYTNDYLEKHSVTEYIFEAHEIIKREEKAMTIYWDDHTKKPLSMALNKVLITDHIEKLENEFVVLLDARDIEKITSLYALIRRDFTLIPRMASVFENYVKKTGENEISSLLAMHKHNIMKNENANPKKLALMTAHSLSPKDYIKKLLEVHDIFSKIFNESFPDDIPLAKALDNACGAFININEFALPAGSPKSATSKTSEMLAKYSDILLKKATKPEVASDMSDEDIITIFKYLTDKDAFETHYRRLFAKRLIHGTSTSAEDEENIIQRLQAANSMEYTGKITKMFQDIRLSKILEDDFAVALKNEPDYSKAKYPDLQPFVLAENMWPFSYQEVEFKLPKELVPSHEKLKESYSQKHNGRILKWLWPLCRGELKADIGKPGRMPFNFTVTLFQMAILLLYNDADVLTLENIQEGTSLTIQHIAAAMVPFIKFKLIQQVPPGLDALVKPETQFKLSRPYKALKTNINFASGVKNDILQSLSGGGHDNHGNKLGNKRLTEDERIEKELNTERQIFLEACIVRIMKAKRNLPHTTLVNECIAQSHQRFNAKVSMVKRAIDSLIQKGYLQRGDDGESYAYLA
As to the kind of experiment: co-IP; as a6 but yeast extract without GFP-Ho; immunoprecipitated with anti-myc, anti-GST or anti-HIS (Figure 4, - Ho).

Experiment [9] addresses T5, myc-tagged Cdc53 (^mycCdc53) (S. cerevisiae). As to the kind of experiment: co-IP; bacterial lysates with HIS-Rpn1 and GST-Ufo1 mixed with yeast extract with myc-Cdc53 and GFP-Ho; aliquots immunoprecipitated with anti-myc, anti-GFP, anti-GST or anti-HIS and Protein A beads (Figure 4, + Ho).

B1: myc-tagged Cdc53 (^mycCdc53) (protein, UniProt Q12018 1-815)
chain: T5 sequence
With B1, the binding entry is “binds” in experiment [1]; “binds” in [2]; “no binding (condition: without GFP-Ho)” in experiment [3]; “binds” in experiment [4]; “binds” in [5]; “binds” in [6]. For the same molecule, in [7], the binding entry is given as “binds”.

B2: HIS-tagged Ufo1 (^HISUfo1) (protein, UniProt Q04511 1-668)
chain: T1 sequence
Turning to B2, the binding entry in experiment [2] is “binds weakly”.

B3: endogenous Ddi1 (protein, UniProt P40087 1-428)
chain: T4 sequence
With B3, the binding entry in [1], in [3], in experiment [8], in experiment [4], in experiment [5] and in experiment [9] was “binds” throughout. For the same molecule, the binding result in experiment [7] is given as “binds”.
